This is one part of the list.
B1: Q9UKT9 (peptide)
chain: FRCNICGADFTQKGNLLRHIKL
B2: Q9UKT9 (peptide)
chain: FHCNQCGAIFTQKGNLLRHIKL
B3: Q9UKT9 (peptide)
chain: FMCPICGALFTQKGNLLRHIKL
B4: Q9UKT9 (peptide)
chain: FGCPICGAPFTQKGNLLRHIKL
B5: Q9UKT9 (peptide)
chain: FSCEVCGAWFTQKGNLLRHIKL
B6: Q9UKT9 (peptide)
chain: FFCEICGHVFTQKGNLLRHIKL
B7: Q9UKT9 (peptide)
chain: LVCPICGFYCTQKGNLLRHIKL
B8: Q9UKT9 (peptide)
chain: FICNQCGRNFTQKGNLLRHIKL
B9: Q9UKT9 (peptide)
chain: FDCEQCGAMFTQKGNLLRHIKL
B10: Q9UKT9 (peptide)
chain: LHCEICGFDCTQKGNLLRHIKL
B11: Q9UKT9 (peptide)
chain: LMCEICGFRCTQKGNLLRHIKL
B12: Q9UKT9 (peptide)
chain: LSCEICGFVCTQKGNLLRHIKL
B13: Q9UKT9 (peptide)
chain: LACNQCGFDCTQKGNLLRHIKL
B14: Q9UKT9 (peptide)
chain: FFCEQCGARFTQKGNLLRHIKL
B15: Q9UKT9 (peptide)
chain: FWCPICGAFFTQKGNLLRHIKL
B16: Q9UKT9 (peptide)
chain: FQCDVCGATFTQKGNLLRHIKL
B17: Q9UKT9 (peptide)
chain: FGCEICGHIFTQKGNLLRHIKL
B18: Q9UKT9 (peptide)
chain: FRCEICGAFFTQKGNLLRHIKL
B19: Q9UKT9 (peptide)
chain: FWCPVCGAQFTQKGNLLRHIKL
B20: Q9UKT9 (peptide)
chain: FECDVCGADFTQKGNLLRHIKL
B21: Q9UKT9 (peptide)
chain: FRCEVCGAKFTQKGNLLRHIKL
B22: Q9UKT9 (peptide)
chain: FFCDICGAKFTQKGNLLRHIKL
B23: Q9UKT9 (peptide)
chain: FFCNQCGRVFTQKGNLLRHIKL
B24: Q9UKT9 (peptide)
chain: FYCEICGAYFTQKGNLLRHIKL
B25: Q9UKT9 (peptide)
chain: FFCNVCGALFTQKGNLLRHIKL
B26: Q9UKT9 (peptide)
chain: FHCNQCGAYFTQKGNLLRHIKL
B27: Q9UKT9 (peptide)
chain: FWCPICGRWFTQKGNLLRHIKL
B28: Q9UKT9 (peptide)
chain: LHCNQCGFCCTQKGNLLRHIKL
B29: Q9UKT9 (peptide)
chain: FRCDVCGARFTQKGNLLRHIKL
B30: Q9UKT9 (peptide)
chain: FCCEICGRRFTQKGNLLRHIKL
B31: Q9UKT9 (peptide)
chain: FHCDICGANFTQKGNLLRHIKL
B32: Q9UKT9 (peptide)
chain: FFCNQCGRGFTQKGNLLRHIKL
B33: Q9UKT9 (peptide)
chain: FFCPVCGAVFTQKGNLLRHIKL
B34: Q9UKT9 (peptide)
chain: FKCEICGHEFTQKGNLLRHIKL
B35: Q9UKT9 (peptide)
chain: FHCDQCGANFTQKGNLLRHIKL
B36: Q9UKT9 (peptide)
chain: FFCPICGAGFTQKGNLLRHIKL
B37: Q9UKT9 (peptide)
chain: FTCEICGRSFTQKGNLLRHIKL
B38: Q9UKT9 (peptide)
chain: FTCPICGRCFTQKGNLLRHIKL
B39: Q9UKT9 (peptide)
chain: FVCPICGHDFTQKGNLLRHIKL
B40: Q9UKT9 (peptide)
chain: FRCDQCGAAFTQKGNLLRHIKL
B41: Q9UKT9 (peptide)
chain: FYCPICGRTFTQKGNLLRHIKL
B42: Q9UKT9 (peptide)
chain: FRCNQCGHEFTQKGNLLRHIKL
B43: Q9UKT9 (peptide)
chain: FMCNVCGATFTQKGNLLRHIKL
B44: Q9UKT9 (peptide)
chain: FGCEICGRTFTQKGNLLRHIKL
B45: Q9UKT9 (peptide)
chain: FWCNQCGACFTQKGNLLRHIKL
B46: Q9UKT9 (peptide)
chain: FACEVCGALFTQKGNLLRHIKL
B47: Q9UKT9 (peptide)
chain: FDCDICGAMFTQKGNLLRHIKL
B48: Q9UKT9 (peptide)
chain: LACNQCGFICTQKGNLLRHIKL
B49: Q9UKT9 (peptide)
chain: FNCDVCGAYFTQKGNLLRHIKL
B50: Q9UKT9 (peptide)
chain: FWCEQCGAEFTQKGNLLRHIKL

molecular target: no compound (DMSO); assay: log2 fold change of degron read counts, EGFP-low vs EGFP+ sorted cells; higher = lower degron-EGFP level without compound (poor expression or instability); conditions: compound: DMSO control; 18 h
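Also: jurkat cells carrying a lentiviral library of mutant zinc finger degrons fused to EGFP plus mCherry, mCherry+ cells FACS sorted, degron abundance counted by next-generation sequencing.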

Row | Sequence | log2 fold change of degron read counts
1 | B1 | -0.986
2 | B2 | -0.284
3 | B3 | 0.43
4 | B4 | 0.399
5 | B5 | -0.547
6 | B6 | -0.664
7 | B7 | 1.46
8 | B8 | -0.762
9 | B9 | -1.54
10 | B10 | -0.332
11 | B11 | 0.53
12 | B12 | -0.574
13 | B13 | 0.0552
14 | B14 | -1.19
15 | B15 | 2.64
16 | B16 | -1.94
17 | B17 | 0.45
18 | B18 | -0.787
19 | B19 | 0.311
20 | B20 | -3.06
21 | B21 | -1.4
22 | B22 | -0.514
23 | B23 | 0.428
24 | B24 | 0.182
25 | B25 | 0.793

Row | Sequence | log2 fold change of degron read counts
26 | B26 | -0.158
27 | B27 | 1.69
28 | B28 | 0.113
29 | B29 | -1.65
30 | B30 | -1.6
31 | B31 | -1.19
32 | B32 | 0.241
33 | B33 | 0.298
34 | B34 | -2.05
35 | B35 | -2.04
36 | B36 | 0.0109
37 | B37 | -1.06
38 | B38 | -0.359
39 | B39 | -0.195
40 | B40 | -1.64
41 | B41 | -0.109
42 | B42 | -1.03
43 | B43 | -1.35
44 | B44 | 0.00391
45 | B45 | 0.557
46 | B46 | -1.64
47 | B47 | -1.89
48 | B48 | 0.49
49 | B49 | -0.747
50 | B50 | -2.29

— the supplement of paper PMC12645437, “Orthogonal IMiD-Degron Pairs Induce Selective Protein Degradation in Cells” (ACS Chemical Biology, 2025)
